# According to the supplement of paper PMC4466236:
# Whole data set: some 33,000 sequences, median “E-score (dimensionless, -0.5 to 0.5)” near -0.058, cut for the highest 2% near 0.35. The list shows a part of the results.
# System: MvaT
# Assay: PBM 8-mer E-score (mean of HK and ME arrays) (E-score (dimensionless, -0.5 to 0.5)); higher = stronger relative binding preference; most listed sequences are background and not binding sites
# Summary of the method: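 Full-length P. aeruginosa MvaT carrying an N-terminal glutathione S-transferase tag was tested by protein binding microarray following a previously described protocol. Two universal double-stranded 60-mer arrays, ME and HK, were used, each with a constant 25-mer primer region and a variable 35-mer region covering all 8-mers. The rank-based E-score is the mean of the two arrays, parsed with a custom script. Its range runs from -0.5 to 0.5 for each 8-mer.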
row,Sequence,PBM 8-mer E-score
1,CTGTCTAA,0.0235
2,TCCAAGCA,-0.0218
3,GCTGGTCC,-0.186
4,AATATGTC,0.233
5,CGCGAGGA,-0.323
6,ACTTGTAA,0.26
7,AAATAAGC,0.275
8,ACGGTGGG,-0.246
9,ATCGTAAC,0.139
10,CGGTACCG,-0.0831
11,GGCTTTTA,-0.0806
12,CATCGATA,0.107
13,GTGGGAAC,-0.114
14,GGCGCCAC,-0.241
15,CAGCTTCC,-0.23
16,CGCCGACG,-0.164
17,ACACCCCC,-0.251
18,ACGACTAA,0.0173
19,GCCAGCAA,-0.11
20,GGCGGACC,-0.286
21,CCCGTTGA,0.0693
22,CTAAACAC,0.0995
23,TGGATACA,-0.00533
24,AAAGTAAG,0.303
25,CATCGGGC,-0.221

row,Sequence,PBM 8-mer E-score
1,GGCGGGAA,-0.235
2,ACGACTAT,0.045
3,CTCATCCC,-0.214
4,ACCGCCCT,-0.0995
5,CAGATTGC,-0.199
6,AGGGATCG,-0.188
7,CACCTCAG,-0.2
8,CAAGGCCA,-0.192
9,CGTGAGGC,-0.326
10,CCGGTAAA,0.0751
11,AAGAGAGC,-0.143
12,CAGCACTG,-0.0168
13,GGCAAGGA,-0.147
14,CACTGTAG,-0.0486
15,ACTCGACC,-0.0835
16,ATAGATAA,0.186
17,AGCCATCG,-0.274
18,GACTGATC,-0.296
19,AAGCCCGC,-0.257
20,ACGAGCCA,-0.164
21,GATTGACC,-0.106
22,AGAGCGCC,-0.212
23,AGTACCGA,0.0995
24,GCCACAAC,-0.0932
25,CCACAGGC,-0.289

row,Sequence,PBM 8-mer E-score
1,CAGACCAG,-0.194
2,CCTGTGCA,-0.0129
3,AGACATTC,-0.0818
4,CCAAAGAA,0.0276
5,GATTGACA,-0.0924
6,AGGGTCTG,-0.21
7,AGTCTAAT,0.157
8,ATACCTCG,0.0641
9,CCTATCGC,-0.133
10,AAGCGGGC,-0.181
11,AATCGCGA,0.0997
12,TATGTCAA,0.141
13,CCGATCCG,-0.161
14,AGACGGCA,-0.137
15,ATGGCGCC,-0.322
16,AAGTCGCA,-0.0674
17,CCATAAGC,-0.088
18,ACAGCTGC,-0.202
19,ATGATTGA,0.0689
20,ATAACCTG,0.107
21,CTGACCTA,-0.113
22,GGAGGGCC,-0.37
23,ACCACACA,0.00122
24,ATCTGCCA,-0.00975
25,CTCGCTTA,-0.0449

row,Sequence,PBM 8-mer E-score
1,CCACGCAC,-0.239
2,ATATGGTC,0.181
3,AAATTGTT,0.351
4,ATAACTTA,0.429
5,CATTAACA,0.274
6,CGACTGAG,-0.00932
7,AGTGGAAT,0.0494
8,CCCCGCCG,-0.227
9,GAGTTGTA,0.287
10,CGTTCCTC,-0.32
11,AACCGAGG,-0.136
12,CACTGTTA,0.184
13,CCTAACGC,-0.185
14,CATCAGTA,-0.0832
15,AGCTGAAT,-0.0807
16,CATCATGA,0.0333
17,ACGACTCC,-0.154
18,AACCGCAG,-0.0784
19,ACCGCTGC,-0.292
20,CATTGTAA,0.237
21,CTTCGAGA,-0.142
22,GTCAAAAA,0.0796
23,AAAGTGAC,0.118
24,CCTAGTCA,-0.00162
25,ACGACAAG,-0.11

row,Sequence,PBM 8-mer E-score
1,GACAGTCC,-0.189
2,TAAATATA,0.442
3,ACTGGCCT,-0.159
4,GCTTGGCA,-0.277
5,ACGGCTGG,-0.191
6,CGCTGATA,0.0618
7,AGGTACGG,-0.239
8,ACAGGCGG,-0.147
9,CAGAGTAG,-0.121
10,ATGACATG,-0.0134
11,CACTTGTA,0.139
12,GCAGTGCA,-0.229
13,ACCACGGA,-0.0173
14,TAACTGAA,0.19
15,TTAGAAAA,0.211
16,ACTTTTCG,0.166
17,CTGAGCTA,-0.0354
18,ATTAACAG,0.334
19,ATATTGTG,0.251
20,CAGTTCAC,-0.0234
21,AGAGGCAC,-0.223
22,CACACAAA,0.0457
23,GTGCGCGA,-0.136
24,CAGTATCA,-0.0367
25,ATGCCACG,-0.155

row,Sequence,PBM 8-mer E-score
1,GTCAGCTA,-0.192
2,GTATGGCA,-0.0837
3,CTGCCCAC,-0.14
4,GCATAAGC,-0.098
5,ACTCCTAC,-0.0769
6,AGACTCGG,-0.243
7,CAACATTA,0.293
8,ATACCAAG,-0.0486
9,ACGTCGAC,-0.0976
10,ACCACTCT,-0.0718
11,ACTTATCG,0.216
12,CCGGTTCC,-0.277
13,CGAGCCCG,-0.182
14,TGCGAGAA,0.0245
15,CCTACTAA,-0.0552
16,CCCTAACC,-0.199
17,TATGCTGA,0.0195
18,ACTGCAAA,0.165
19,CCGTGGAA,-0.16
20,CCTGGCAG,-0.209
21,ATCAGCAT,0.05
22,ATGAACCA,-0.0261
23,CGACCTCA,-0.184
24,CCCTACGA,-0.216
25,ACGAGGAG,-0.365

row,Sequence,PBM 8-mer E-score
1,AAGTGGGC,-0.0768
2,AAAAGTTT,0.352
3,CATGTGTC,-0.0494
4,AATATACC,0.324
5,ACCATACC,-0.137
6,CCCAGAGA,-0.136
7,ATACCTGG,-0.0755
8,CGATGTGA,-0.146
9,TCCAAACA,0.0422
10,CGCTTTTC,0.115
11,GACAAGAC,-0.119
12,AACGTTGT,0.177
13,CGAAGACG,-0.178
14,CAGTGAGA,0.0259
15,TTCTTCAA,0.146
16,AATCAGCC,0.0374
17,TAAGATAA,0.337
18,CTGTTGTC,-0.0748
19,CTCTGGCA,-0.164
20,CTTTTACC,0.0416
21,CGTCTTAA,0.107
22,GTTTATGA,0.208
